Results published in the supplement of paper PMC8728848.
The list shows a part of the results.

What was measured:
Assay in all cases: glycan array binding signal (z-score within array); higher = stronger binding
Conditions in all cases: glycan notation: IUPAC condensed, linker removed
Gal4S6S(b1-4)GlcNAc = molecular target: Gal4S6S(b1-4)GlcNAc
How it was run: (§1)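 Glycan array data came from 3228 arrays in the Consortium for Functional Glycomics database, and only arrays with an available protein sequence were kept. Glycan names were put into IUPAC-condensed notation, and columns mapping to the same glycan were averaged. The binding signal is a within-array Z-score, averaged across arrays of one protein sequence run at different concentrations or buffers and across linkers. A negative Z-score can be read as non-binding.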

Gal6P(b1-4)GlcNAc = molecular target: Gal6P(b1-4)GlcNAc
How it was run: as §1

Gal6S(b1-3)GlcNAc = molecular target: Gal6S(b1-3)GlcNAc
How it was run: as §1

Gal6S(b1-3)GlcNAc6S = molecular target: Gal6S(b1-3)GlcNAc6S
How it was run: as §1

Gal6S(b1-4)Glc = molecular target: Gal6S(b1-4)Glc
How it was run: as §1

Gal6S(b1-4)Glc6S = molecular target: Gal6S(b1-4)Glc6S
How it was run: as §1

Gal6S(b1-4)GlcNAc = molecular target: Gal6S(b1-4)GlcNAc
How it was run: as §1

Gal6S(b1-4)GlcNAc6S = molecular target: Gal6S(b1-4)GlcNAc6S
How it was run: as §1

GalNAc(a1-3)Gal = molecular target: GalNAc(a1-3)Gal
How it was run: as §1

GalNAc(a1-3)GalNAc = molecular target: GalNAc(a1-3)GalNAc
How it was run: as §1

[1] = molecular target: GalNAc(a1-3)GalNAc(a1-3)Gal(a1-4)Gal(b1-4)GlcNAc
How it was run: as §1

[2] = molecular target: GalNAc(a1-3)GalNAc(b1-3)Gal(a1-4)Gal(b1-4)Glc
How it was run: as §1

GalNAc(b1-3)Gal = molecular target: GalNAc(b1-3)Gal
How it was run: as §1

[3] = molecular target: GalNAc(b1-3)Gal(a1-4)Gal(b1-4)GlcNAc
How it was run: as §1

[4] = molecular target: GalNAc(b1-3)Gal(a1-4)Gal(b1-4)GlcNAc(b1-3)Gal(b1-4)Glc
How it was run: as §1

[5] = molecular target: GalNAc(b1-3)Gal(a1-6)Gal(b1-4)Glc
How it was run: as §1

GalNAc(b1-3)GalNAc = molecular target: GalNAc(b1-3)GalNAc
How it was run: as §1

GalNAc(b1-3)GlcNAc = molecular target: GalNAc(b1-3)GlcNAc
How it was run: as §1

GalNAc(b1-4)Gal(b1-4)Glc = molecular target: GalNAc(b1-4)Gal(b1-4)Glc
How it was run: as §1

GalNAc(b1-4)GlcNAc = molecular target: GalNAc(b1-4)GlcNAc
How it was run: as §1

[6] = molecular target: GalNAc(b1-4)GlcNAc(b1-2)Man
How it was run: as §1

[7] = molecular target: GalNAc(b1-4)GlcNAc(b1-2)Man(a1-3)[GalNAc(b1-4)GlcNAc(b1-2)Man(a1-6)]Man(b1-4)GlcNAc(b1-4)GlcNAc
How it was run: as §1

[8] = molecular target: GalNAc(b1-4)GlcNAc(b1-3)GalNAc(b1-4)GlcNAc
How it was run: as §1

GalNAc(b1-4)GlcNAc6S = molecular target: GalNAc(b1-4)GlcNAc6S
How it was run: as §1

GalNAc(b1-6)GalNAc = molecular target: GalNAc(b1-6)GalNAc
How it was run: as §1

GalNAc3S(b1-4)GlcNAc = molecular target: GalNAc3S(b1-4)GlcNAc
How it was run: as §1

GalNAc3S(b1-4)GlcNAc3S = molecular target: GalNAc3S(b1-4)GlcNAc3S
How it was run: as §1

[9] = molecular target: GalNAc3S(b1-4)[Fuc(a1-3)]GlcNAc
How it was run: as §1

GalNAc4S6S(b1-4)GlcNAc = molecular target: GalNAc4S6S(b1-4)GlcNAc
How it was run: as §1

GalNAc6S(b1-4)GlcNAc = molecular target: GalNAc6S(b1-4)GlcNAc
How it was run: as §1

Glc(a1-4)Glc = molecular target: Glc(a1-4)Glc
How it was run: as §1

[10] = molecular target: Glc(a1-4)Glc(a1-4)Glc(a1-4)Glc
How it was run: as §1

Glc(a1-6)Glc(a1-6)Glc = molecular target: Glc(a1-6)Glc(a1-6)Glc
How it was run: as §1

[11] = molecular target: Glc(a1-6)Glc(a1-6)Glc(a1-6)Glc
How it was run: as §1

Glc(b1-4)Glc = molecular target: Glc(b1-4)Glc
How it was run: as §1

Glc(b1-6)Glc = molecular target: Glc(b1-6)Glc
How it was run: as §1

GlcA(b1-3)Gal = molecular target: GlcA(b1-3)Gal
How it was run: as §1

GlcA(b1-3)GlcNAc = molecular target: GlcA(b1-3)GlcNAc
How it was run: as §1

B1: Gal 9 (Homo sapiens), O00182 (protein)
chain: MAFSGSQAPYLSPAVPFSGTIQGGLQDGLQITVNGTVLSSSGTRFAVNFQTGFSGNDIAFHFNPRFEDGGYVVCNTRQNGSWGPEERKTHMPFQKGMPFDLCFLVQSSDFKVMVNGILFVQYFHRVPFHRVDTISVNGSVQLSYISFQNPRTVPVQPAFSTVPFSQPVCFPPRPRGRRQKPPGVWPANPAPITQTVIHTVQSAPGQMFSTPAIPPMMYPHPAYPMPFITTILGGLYPSKSILLSGTVLPSAQRFHINLCSGNHIAFHLNPRFDENAVVRNTQIDNSWGSEERSLPRKMPFVRGQSFSVWILCEAHCLKVAVDGQHLFEYYHRLRNLPTINRLEVGGDIQLTHVQT
glycan array binding signal (z-score) (Gal4S6S(b1-4)GlcNAc): -0.312
glycan array binding signal (z-score) (Gal6P(b1-4)GlcNAc): -0.27
glycan array binding signal (z-score) (Gal6S(b1-3)GlcNAc): -0.317
glycan array binding signal (z-score) (Gal6S(b1-3)GlcNAc6S): -0.325
glycan array binding signal (z-score) (Gal6S(b1-4)Glc): -0.32
glycan array binding signal (z-score) (Gal6S(b1-4)Glc6S): -0.299
glycan array binding signal (z-score) (Gal6S(b1-4)GlcNAc): -0.317
glycan array binding signal (z-score) (Gal6S(b1-4)GlcNAc6S): -0.323
glycan array binding signal (z-score) (GalNAc(a1-3)Gal): -0.318
glycan array binding signal (z-score) (GalNAc(a1-3)GalNAc): -0.316
glycan array binding signal (z-score) [1]: 0.672
glycan array binding signal (z-score) [2]: 1.47
glycan array binding signal (z-score) (GalNAc(b1-3)Gal): -0.315
glycan array binding signal (z-score) [3]: -0.279
glycan array binding signal (z-score) [4]: -0.036
glycan array binding signal (z-score) [5]: -0.293
glycan array binding signal (z-score) (GalNAc(b1-3)GalNAc): -0.316
glycan array binding signal (z-score) (GalNAc(b1-3)GlcNAc): -0.255
glycan array binding signal (z-score) (GalNAc(b1-4)Gal(b1-4)Glc): -0.3
glycan array binding signal (z-score) (GalNAc(b1-4)GlcNAc): -0.288
glycan array binding signal (z-score) [6]: -0.303
glycan array binding signal (z-score) [7]: -0.244
glycan array binding signal (z-score) [8]: -0.316
glycan array binding signal (z-score) (GalNAc(b1-4)GlcNAc6S): -0.264
glycan array binding signal (z-score) (GalNAc(b1-6)GalNAc): -0.313
glycan array binding signal (z-score) (GalNAc3S(b1-4)GlcNAc): -0.295
glycan array binding signal (z-score) (GalNAc3S(b1-4)GlcNAc3S): -0.307
glycan array binding signal (z-score) [9]: -0.242
glycan array binding signal (z-score) (GalNAc4S6S(b1-4)GlcNAc): -0.309
glycan array binding signal (z-score) (GalNAc6S(b1-4)GlcNAc): -0.286
glycan array binding signal (z-score) (Glc(a1-4)Glc): -0.33
glycan array binding signal (z-score) [10]: -0.319
glycan array binding signal (z-score) (Glc(a1-6)Glc(a1-6)Glc): -0.309
glycan array binding signal (z-score) [11]: -0.316
glycan array binding signal (z-score) (Glc(b1-4)Glc): -0.307
glycan array binding signal (z-score) (Glc(b1-6)Glc): -0.327
glycan array binding signal (z-score) (GlcA(b1-3)Gal): -0.324
glycan array binding signal (z-score) (GlcA(b1-3)GlcNAc): 0.12
